From patent publication US5648336A (University of Colorado, priority 1994, dated 1997)
Not every detail of the peptide structures is certain; ends, links or a residue may be inferred. Square brackets hold non-standard residues; d marks the D form. Peptide text beside a SMILES is read from it. * marks the point of attachment. Adamantane1carbonyl = O=C(C12CC3CC(CC(C3)C1)C2)*; Oic = O=C(O)[C@@H]1C[C@@H]2CCCC[C@@H]2N1; dIgl = N[C@@H](C(=O)O)C1Cc2ccccc2C1; Hyp = O=C(O)[C@@H]1C[C@@H](O)CN1

System: hypotensive action of bradykinin
Assay: Blood pressure in the anesthetized rat: inhibition of hypotensive action of bradykinin
Type: in vivo
Settings: intraarterial bolus mixture with BK, 500 g male rat; indicated approximately
From the text: Potencies for the antagonists in this assay are not reported precisely, but rather are indicated approximately.
On isolated smooth muscles, agonist potency is given as percent of BK potency; antagonist potency is given as pA2, and is underlined. In blood pressure assays, the number is the dose of peptide in micrograms that causes 50% reduction in the effect of BK intraarterially administered as a bolus mixture in a 500 g male rat; Ag indicates unquantitated agonist activity; Ant indicates unquantitated antagonist activity.

SMILES | Blood Pressure: dose of peptide that causes 50% reduction in the effect of BK
N=C(N)NCCC[C@@H](N)C(=O)N[C@@H](CCCNC(=N)N)C(=O)N1CCC[C@H]1C(=O)N1C[C@H](O)C[C@H]1C(=O)NCC(=O)N[C@H](C(=O)N[C@@H](CO)C(=O)N1Cc2ccccc2C[C@@H]1C(=O)N[C@H](C(=O)N[C@@H](CCCNC(=N)N)C(=O)O)C1Cc2ccccc2C1)C1CCCC1 [Compound 12, DArg-Arg-Pro-Hyp-Gly-Cpg-Ser-DTic-Iglb-Arg] | 0 micrograms
N=C(N)NCCC[C@@H](N)C(=O)N[C@@H](CCCNC(=N)N)C(=O)N1CCC[C@H]1C(=O)N1C[C@H](O)C[C@H]1C(=O)NCC(=O)N[C@H](C(=O)N[C@@H](CO)C(=O)N[C@@H](C(=O)N1[C@H](C(=O)N[C@@H](CCCNC(=N)N)C(=O)O)C[C@@H]2CCCC[C@@H]21)C1Cc2ccccc2C1)C1CCCC1 [Compound 24, DArg-Arg-Pro-Hyp-Gly-Cpg-Ser-DIglb-Oic-Arg] | 5 micrograms
N=C(N)NCCC[C@H](NC(=O)[C@@H]1C[C@@H]2CCCC[C@@H]2N1C(=O)[C@H](NC(=O)[C@H](CO)NC(=O)[C@@H](NC(=O)CNC(=O)[C@@H]1C[C@@H](O)CN1C(=O)[C@@H]1CCCN1C(=O)[C@H](CCCNC(=N)N)NC(=O)[C@@H](CCCNC(=N)N)NC(=O)C1=CN2CCC1CC2)C1Cc2ccccc2C1)C1Cc2ccccc2C1)C(=O)O [Compound 3, Dhg-DArg-Arg-Pro-Hyp-Gly-Iglb-Ser-DIg lb-Oic-Arg] | 5 micrograms
N=C(N)NCCC[C@@H](N)C(=O)N[C@@H](CCCNC(=N)N)C(=O)N1CCC[C@H]1C(=O)N1C[C@H](O)C[C@H]1C(=O)NCC(=O)N[C@H](Cc1cccs1)C(=O)N[C@@H](CO)C(=O)N[C@@H](C(=O)N1[C@H](C(=O)N[C@@H](CCCNC(=N)N)C(=O)O)C[C@@H]2CCCC[C@@H]21)C1Cc2ccccc2C1 [Compound 31, DArg-Arg-Pro-Hyp-Gly-DThi-Ser-DIglb-Oic-Arg] | 5 micrograms
N=C(N)NCCC[C@H](NC(=O)[C@@H]1C[C@@H]2CCCC[C@@H]2N1C(=O)[C@H](NC(=O)[C@H](COS(=O)(=O)O)NC(=O)[C@H](Cc1cccs1)NC(=O)CNC(=O)[C@@H]1C[C@@H](O)CN1C(=O)[C@@H]1CCCN1C(=O)[C@H](CCCNC(=N)N)NC(=O)[C@@H](CCCNC(=N)N)NC(=O)C12CC3CC(CC(C3)C1)C2)C1Cc2ccccc2C1)C(=O)O [Compound 61, Aca-DArg-Arg-Pro-Hyp-Gly-Thi-Ser(SO)-DIglb-Oic-Arg] | 0.5 micrograms
N=C(N)NCCC[C@H](NC(=O)[C@@H]1C[C@@H]2CCCC[C@@H]2N1C(=O)[C@H](NC(=O)[C@H](CO)NC(=O)[C@H](Cc1ccccc1)NC(=O)CNC(=O)[C@@H]1C[C@@H](O)CN1C(=O)[C@@H]1CCCN1C(=O)[C@H](CCCNC(=N)N)NC(=O)[C@@H](CCCNC(=N)N)NC(=O)C12CC3CC(CC(C3)C1)C2)C1Cc2ccccc2C1)C(=O)O [Compound 53, Aca-DArg-Arg-Pro-Hyp-Gly-Phe-Ser-DIglb-Oic-Arg] (Adamantane1carbonyl-[dR]RP[Hyp]GFS[dIgl][Oic]R-OH) | 0.5 micrograms
N=C(N)NCCC[C@@H](N)C(=O)N[C@@H](CCCNC(=N)N)C(=O)N1CCC[C@H]1C(=O)N1C[C@H](O)C[C@H]1C(=O)NCC(=O)N[C@H](C(=O)N[C@@H](CO)C(=O)N1Cc2ccccc2C[C@@H]1C(=O)N(CC(=O)N[C@@H](CCCNC(=N)N)C(=O)O)C1Cc2ccccc2C1)C1CCCC1 [Compound 29, DArg-Arg-Pro-Hyp-Gly-Cpg-Ser-DTic-Nigb-Arg] | 5 micrograms
N=C(N)NCCC[C@@H](N)C(=O)N[C@@H](CCCNC(=N)N)C(=O)N1CCC[C@H]1C(=O)N1C[C@H](O)C[C@H]1C(=O)NCC(=O)N[C@@H](Cc1cccs1)C(=O)N[C@@H](CO)C(=O)N1Cc2ccccc2C[C@@H]1C(=O)N(CC(=O)N[C@@H](CCCNC(=N)N)C(=O)O)C1Cc2ccccc2C1 [Compound 23, DArg-Arg-Pro-Hyp-Gly-Thi-Ser-DTic-Nigb-Arg] | 0.5 micrograms
